Whole data set: some 33,000 sequences, median “E-score (-0.5 to 0.5)” near -0.012, cut for the highest 2% near 0.29. The list shows a part of the results.
Target: T1, Ybr033w (UniProt P38073)
T1 sequence: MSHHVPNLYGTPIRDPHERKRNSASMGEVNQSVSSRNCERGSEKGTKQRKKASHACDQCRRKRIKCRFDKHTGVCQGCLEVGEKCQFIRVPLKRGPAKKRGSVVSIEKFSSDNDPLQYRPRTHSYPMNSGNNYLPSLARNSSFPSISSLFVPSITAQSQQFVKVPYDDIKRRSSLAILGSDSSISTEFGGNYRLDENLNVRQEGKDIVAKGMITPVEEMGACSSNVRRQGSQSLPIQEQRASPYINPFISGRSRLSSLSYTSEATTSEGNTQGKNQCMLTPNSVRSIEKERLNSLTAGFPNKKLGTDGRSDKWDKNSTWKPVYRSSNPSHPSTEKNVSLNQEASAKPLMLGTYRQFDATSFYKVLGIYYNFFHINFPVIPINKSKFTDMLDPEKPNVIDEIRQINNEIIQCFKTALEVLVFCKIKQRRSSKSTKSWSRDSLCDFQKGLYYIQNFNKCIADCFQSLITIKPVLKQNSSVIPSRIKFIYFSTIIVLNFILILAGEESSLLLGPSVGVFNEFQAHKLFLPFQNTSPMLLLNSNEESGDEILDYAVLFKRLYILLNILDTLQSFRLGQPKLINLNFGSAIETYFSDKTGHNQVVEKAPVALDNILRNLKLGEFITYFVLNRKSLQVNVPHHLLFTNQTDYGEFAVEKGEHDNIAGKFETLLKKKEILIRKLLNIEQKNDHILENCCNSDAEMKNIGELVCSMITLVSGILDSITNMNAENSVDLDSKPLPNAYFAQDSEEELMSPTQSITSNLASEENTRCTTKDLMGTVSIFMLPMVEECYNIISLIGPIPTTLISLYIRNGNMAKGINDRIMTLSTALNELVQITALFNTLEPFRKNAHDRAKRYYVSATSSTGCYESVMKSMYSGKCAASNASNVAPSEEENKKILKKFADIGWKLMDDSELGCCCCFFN
Experiment: PBM E-score (8-mer binding enrichment) (E-score (-0.5 to 0.5)); higher = stronger / more preferred TF binding; most listed sequences are background and not binding sites
Settings: protein concentration: 200 nM; construct: GST-full length
Description: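 Universal 'all 10-mer' protein binding microarrays (Agilent AMADID 015681) probed with GST-tagged S. cerevisiae TFs (full-length or DBD) made by in vitro transcription/translation (PURExpress), about 100-200 nM. Bound TF was detected with fluorescent anti-GST. Each ungapped 8-mer (which stands for itself and its reverse complement) is scored by the PBM enrichment score (E-score), a modified Wilcoxon-Mann-Whitney statistic from -0.5 to +0.5, computed with the Universal PBM Analysis Suite. Scale: above 0.35 generally sequence-specific binding.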

Row | Sequence | PBM E-score
1 | GCCACCTA | -0.167
2 | CATGGGCA | -0.108
3 | GTGCAGCA | -0.0842
4 | AATTCACG | -0.0727
5 | GCTGTTCA | 0.0549
6 | GAATACAC | 0.00479
7 | ACAGAATA | 0.224
8 | TAGGACAA | 0.105
9 | GCAAGTGA | -0.0168
10 | AGGTTACA | 0.0611
11 | ATTAGCCA | 0.0882
12 | GTCTATCA | 0.0657
13 | CCGGGGAC | -0.262
14 | ACATGATA | 0.32
15 | ACAGGAAA | 0.278
16 | ACCTCGAA | 0.0549
17 | CCCCTCAA | -0.187
18 | AAGGTGTG | -0.196
19 | GGGCTTAC | -0.177
20 | ACAGGGCT | -0.224
21 | CTACGTCC | -0.241
22 | GTACCCCA | -0.0622
23 | ACATTACC | -0.0397
24 | ATTTAAGA | 0.0567
25 | ACGTAGCC | -0.252

Row | Sequence | PBM E-score
26 | ATACCTTA | 0.0128
27 | TAAGGCAA | 0.0506
28 | AGTGTTAG | 0.0778
29 | TCAGGCCA | -0.0114
30 | CCACGGCA | -0.0768
31 | AGTCATTG | -0.00289
32 | ACAGGGAG | -0.131
33 | GGCTGTCA | -0.0424
34 | AGTGCAGG | -0.0888
35 | CCGAACTC | -0.0175
36 | AGATACCA | 0.229
37 | CCATGTAA | 0.0138
38 | AGCGGAAA | 0.106
39 | ACTCTCAT | 0.0553
40 | ACCAATTG | -0.00748
41 | ATCTGCGG | 0.0239
42 | CTCACAGC | -0.138
43 | CACCGAAA | 0.042
44 | ATCCCCAG | -0.153
45 | ACGCCTCC | -0.165
46 | AGAACCGG | 0.0155
47 | AAATCCTA | 0.126
48 | ACTGAAGA | 0.0163
49 | AGCCGTTG | -0.0509
50 | AGGGGGAG | -0.27

Row | Sequence | PBM E-score
51 | CCGTTGCC | -0.27
52 | CCCGGCGC | -0.245
53 | ATCTGAAT | 0.138
54 | AGAGATTA | 0.195
55 | ACCCGACG | -0.159
56 | GCGCCTAA | -0.0559
57 | ACTAACCA | 0.11
58 | CATAGGAG | -0.103
59 | CATGGTGG | -0.102
60 | GCAGACCC | -0.343
61 | CGTATTCC | -0.01
62 | AATCTTAC | 0.137
63 | AGTCCATA | -0.028
64 | CGGCAGCC | -0.213
65 | ACTCGGCT | -0.0995
66 | GATCCGAC | -0.134
67 | AGCTTGCA | -0.0609
68 | AGTCTTAC | -0.0512
69 | ACGTCCGA | 0.0242
70 | CACGAGCC | -0.141
71 | AAGTTTGA | 0.115
72 | AATCGTGT | 0.00705
73 | AAGATGTC | 0.00552
74 | AAGCACAT | -0.0363
75 | CTTTCCAA | 0.0794

Row | Sequence | PBM E-score
76 | AGACGTCA | -0.199
77 | AACTCGGA | -0.0656
78 | ACAATTTA | 0.225
79 | AACGCACG | -0.0229
80 | TCACACAA | 0.126
81 | GAATCTGA | -0.0945
82 | CTCCAGGC | -0.266
83 | CTTGCGGC | 0.125
84 | GGCAGCAA | -0.13
85 | AATCCCGG | 0.0331
86 | GCGAACGA | 0.0835
87 | CTTCTGCA | 0.0159
88 | GGCCGGCC | -0.274
89 | ACACCCTC | -0.202
90 | ATGCGACA | 0.0689
91 | CGAGCGAG | 0.214
92 | GTAAGGAA | 0.12
93 | CCGCTGGA | 0.0956
94 | CGTAATAC | 0.186
95 | ACCCCGTG | -0.101
96 | ATTATTCG | 0.328
97 | GTAGCATA | 0.124
98 | TTAAAAAA | 0.306
99 | CATGTGCC | -0.194
100 | CCGTATCC | -0.00047

Row | Sequence | PBM E-score
101 | ATCCACGG | 0.0163
102 | GTCCCGTA | -0.146
103 | CACACTAC | -0.0775
104 | AATTTAAC | 0.245
105 | ATAAACAA | 0.326
106 | AGTTTGTG | 0.049
107 | CTCATGAA | 0.111
108 | AGGGATAT | 0.0785
109 | CTCCTTCA | -0.121
110 | CAGGGGCA | -0.215
111 | CCCATGGC | -0.386
112 | GTCAAACA | -0.0344
113 | AATTTGCA | 0.0939
114 | GCGTAACA | 0.0527
115 | ATCAGACA | -0.0197
116 | AACTTGCG | -0.00192
117 | CTAGTTAC | -0.0321
118 | GTACATTA | 0.17
119 | AAGGATTA | 0.26
120 | AGGTTGAC | -0.0309
121 | CAGGTGAG | -0.0825
122 | GGCAATGA | -0.132
123 | GAGTCGCA | -0.24
124 | AAAGTTTC | 0.163
125 | CTGACTTC | -0.0877

Row | Sequence | PBM E-score
126 | GGCCCCAC | -0.303
127 | CAAGTACA | 0.0873
128 | CACGCTGG | -0.188
129 | CATCAGGG | -0.172
130 | AGCAACCG | -0.0338
131 | CCGATCCA | -0.0621
132 | AATCGGCC | -0.209
133 | ACCCTCCA | -0.225
134 | GGTGATTA | 0.252
135 | AACGGGCT | -0.231
136 | ACATATTC | 0.178
137 | CAGACGGA | -0.0529
138 | ACTAGCAT | 0.0646
139 | AAACCTGT | 0.0221
140 | AGGCGTAA | 0.0823
141 | AAGGCATG | 0.00861
142 | CGCATACC | 0.0415
143 | CTAATAAG | 0.128
144 | ACCTGCAT | -0.0909
145 | AGGCAGTC | -0.143
146 | GGTCCGCA | -0.225
147 | ATCCTCAT | -0.0549
148 | CCAACGTC | -0.0704
149 | CCTTCTCC | -0.227
150 | AACGAAGC | 0.117

Row | Sequence | PBM E-score
151 | CGACACGA | 0.122
152 | CTCAATTA | 0.213
153 | AGGCCTTG | -0.22
154 | AAACAACG | 0.15
155 | GAGGTCGA | -0.178
156 | GTGGATAA | 0.169
157 | AGAAGCCT | -0.0299
158 | CGGCCCGC | -0.23
159 | CGGTAGAG | -0.0888
160 | AGGCTGGC | -0.183
161 | AGTCCATG | -0.126
162 | GCTGATCC | -0.0975
163 | ACCTGAAC | -0.219
164 | AGAATAAC | 0.141
165 | AAAATATC | 0.304
166 | CGGTACAA | 0.04
167 | AAGATGGG | -0.169
168 | CGTTCTAA | 0.0905
169 | TCACCCAA | 0.0919
170 | GCCGTCGA | -0.00647
171 | ATTGCCGC | -0.0973
172 | ATGGAGGG | -0.186

Source: the supplement of paper PMC3334620
